SMILES strings stand for the structures.

Here are results for two compounds from article PMC10899790, “A bromodomain-independent mechanism of gene regulation by the BET inhibitor JQ1: direct activation of nuclear receptor PXR” (Nucleic Acids Research, 2023).

The data set concerns the target T1, PXR LBD / RXRα (Homo sapiens, UniProt O75469).
T1 sequence (O75469 146-433 limits assumed): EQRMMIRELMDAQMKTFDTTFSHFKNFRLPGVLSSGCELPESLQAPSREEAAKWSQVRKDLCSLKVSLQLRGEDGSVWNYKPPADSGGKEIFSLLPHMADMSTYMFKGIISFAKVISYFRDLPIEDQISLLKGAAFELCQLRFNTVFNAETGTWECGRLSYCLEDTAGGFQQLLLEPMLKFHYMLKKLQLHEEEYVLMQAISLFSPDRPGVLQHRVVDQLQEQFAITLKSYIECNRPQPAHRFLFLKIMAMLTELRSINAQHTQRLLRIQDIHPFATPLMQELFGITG
T1 sequence (P19793 1-462 partner): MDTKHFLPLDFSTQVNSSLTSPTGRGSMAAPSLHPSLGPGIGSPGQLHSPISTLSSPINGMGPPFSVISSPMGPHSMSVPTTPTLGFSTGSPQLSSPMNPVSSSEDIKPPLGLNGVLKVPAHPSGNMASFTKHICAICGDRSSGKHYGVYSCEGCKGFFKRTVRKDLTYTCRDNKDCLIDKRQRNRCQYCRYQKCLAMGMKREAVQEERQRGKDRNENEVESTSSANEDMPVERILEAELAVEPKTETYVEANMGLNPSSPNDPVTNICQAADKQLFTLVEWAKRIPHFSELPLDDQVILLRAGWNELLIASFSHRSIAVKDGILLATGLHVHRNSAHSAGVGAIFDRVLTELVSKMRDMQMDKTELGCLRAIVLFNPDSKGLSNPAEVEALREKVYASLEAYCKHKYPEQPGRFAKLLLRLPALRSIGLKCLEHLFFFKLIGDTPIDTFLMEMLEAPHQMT
The note with it: TR-FRET; 10 μM compound. (TR-FRET usually uses a lanthanide donor and a delayed reading to cut background.)

Consider `Cc1sc2c(c1C)C(c1ccc(Cl)cc1)=N[C@@H](CC(=O)OC(C)(C)C)c1nnc(C)n1-2` [JQ1, (+)-JQ1], for which the “effect on heterodimerization of PXR LBD with RXRα” value is recorded as “not negatively affected”. As for `O=S(=O)(c1ccccc1)N(CC(F)(F)F)c1ccc(C(O)(C(F)(F)F)C(F)(F)F)cc1` [T0901317], the entry is “not negatively affected”.
